Measurements from the supplement of paper PMC11741623.
The list shows a part of the results. Interaction screen of human proteins with wild-type SARS-CoV-2 proteins by split-DHFR complementation in yeast, 1 µg/mL methotrexate. Value = fitness of the pair (three or more lineages) minus that of the viral protein without a human partner, on a scale set by negative (0) and fused positive (1) controls, mean of up to three cultures; higher = more likely to interact. Active = false discovery rate below 0.05 (one-sided t-test) in at least one culture. Nearly all pairs are not hits, and differences among them are mostly noise (correlation between cultures about 0.3); most hits were seen in one culture only. Human sequences are the Swiss-Prot entries looked up by gene name; the clone may be another isoform. NSP2 values were corrected by the authors for a growth advantage. Listed are human proteins with a hit and a random twelfth of the others.

Legend:
Experiment in all cases: yeast fitness gain over the viral ORF with no human partner (scaled fitness); higher = more likely to interact
SARS-CoV-2 M = target: SARS-CoV-2 M
Procedure: (§1)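 Split mouse DHFR complementation in pooled diploid yeast: human ORFeome clones carry one fragment and viral ORFs the other; barcoded lineages compete in 1 µg/mL methotrexate and fitness is read by barcode sequencing in up to three cultures.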

SARS-CoV-2 NSP10 = target: SARS-CoV-2 NSP10
Procedure: as §1

SARS-CoV-2 NSP12 = target: SARS-CoV-2 NSP12
Procedure: as §1

SARS-CoV-2 NSP13 = target: SARS-CoV-2 NSP13
Procedure: as §1

SARS-CoV-2 NSP15 = target: SARS-CoV-2 NSP15
Procedure: as §1

SARS-CoV-2 NSP5 = target: SARS-CoV-2 NSP5
Procedure: as §1

SARS-CoV-2 NSP6 = target: SARS-CoV-2 NSP6
Procedure: as §1

SARS-CoV-2 NSP7 = target: SARS-CoV-2 NSP7
Procedure: as §1

SARS-CoV-2 NSP8 = target: SARS-CoV-2 NSP8
Procedure: as §1

SARS-CoV-2 NSP9 = target: SARS-CoV-2 NSP9
Procedure: as §1

SARS-CoV-2 ORF3B = target: SARS-CoV-2 ORF3B
Procedure: as §1

SARS-CoV-2 ORF6 = target: SARS-CoV-2 ORF6
Procedure: as §1

SARS-CoV-2 ORF7A = target: SARS-CoV-2 ORF7A
Procedure: as §1

SARS-CoV-2 ORF7B = target: SARS-CoV-2 ORF7B
Procedure: as §1

SARS-CoV-2 ORF8 = target: SARS-CoV-2 ORF8
Procedure: as §1

SARS-CoV-2 ORF9B = target: SARS-CoV-2 ORF9B
Procedure: as §1

[1] = target: SARS-CoV-2 ORF9Bwu (the 73-codon ORF)
Procedure: as §1

SARS-CoV-2 S = target: SARS-CoV-2 S
Procedure: as §1

SARS-CoV-2 NSP1 = target: SARS-CoV-2 NSP1
Procedure: as §1

SARS-CoV-2 NSP14 = target: SARS-CoV-2 NSP14
Procedure: as §1

SARS-CoV-2 NSP16 = target: SARS-CoV-2 NSP16
Procedure: as §1

SARS-CoV-2 NSP2 = target: SARS-CoV-2 NSP2
Procedure: as §1

SARS-CoV-2 NSP4 = target: SARS-CoV-2 NSP4
Procedure: as §1

SARS-CoV-2 ORF10 = target: SARS-CoV-2 ORF10
Procedure: as §1

SARS-CoV-2 ORF3A = target: SARS-CoV-2 ORF3A
Procedure: as §1

SARS-CoV-2 N = target: SARS-CoV-2 N
Procedure: as §1

Measured: yeast fitness gain

B1: FTSJ2, Q9UI43 (protein)
chain: MAGYLKLVCVSFQRQGFHTVGSRCKNRTGAEHLWLTRHLRDPFVKAAKVESYRCRSAFKLLEVNERHQILRPGLRVLDCGAAPGAWSQVAVQKVNAAGTDPSSPVGFVLGVDLLHIFPLEGATFLCPADVTDPRTSQRILEVLPGRRADVILSDMAPNATGFRDLDHDRLISLCLTLLSVTPDILQPGGTFLCKTWAGSQSRRLQRRLTEEFQNVRIIKPEASRKESSEVYFLATQYHGRKGTVKQ
inactive: SARS-CoV-2 M 0.0191 | SARS-CoV-2 NSP10 = -0.0744 | SARS-CoV-2 NSP12 = -0.0423 | SARS-CoV-2 NSP13 = -0.137 | SARS-CoV-2 NSP15 = 0.00911 | SARS-CoV-2 NSP5 = -0.00545 | SARS-CoV-2 NSP6 = 0.0152 | SARS-CoV-2 NSP7 = 0.0917 | SARS-CoV-2 NSP8 = 0.00569 | SARS-CoV-2 NSP9 = 0.145 | SARS-CoV-2 ORF3B -0.0439 | SARS-CoV-2 ORF6 = -0.142 | SARS-CoV-2 ORF7A -0.0758 | SARS-CoV-2 ORF7B -0.0547 | SARS-CoV-2 ORF8 = 0.0355 | SARS-CoV-2 ORF9B 0.0124 | [1] 0.0165 | SARS-CoV-2 S -0.0899

B2: PLEKHF1, Q96S99 (protein)
chain: MVDHLANTEINSQRIAAVESCFGASGQPLALPGRVLLGEGVLTKECRKKAKPRIFFLFNDILVYGSIVLNKRKYRSQHIIPLEEVTLELLPETLQAKNRWMIKTAKKSFVVSAASATERQEWISHIEECVRRQLRATGRPPSTEHAAPWIPDKATDICMRCTQTRFSALTRRHHCRKCGFVVCAECSRQRFLLPRLSPKPVRVCSLCYRELAAQQRQEEAEEQGAGSPGQPAHLARPICGASSGDDDDSDEDKEGSRDGDWPSSVEFYASGVAWSAFHS
inactive: SARS-CoV-2 M 0.00204 | SARS-CoV-2 NSP1 = -0.0526 | SARS-CoV-2 NSP10 = -0.0472 | SARS-CoV-2 NSP12 = 0.0771 | SARS-CoV-2 NSP13 = -0.0497 | SARS-CoV-2 NSP14 = 0.0278 | SARS-CoV-2 NSP15 = -0.0237 | SARS-CoV-2 NSP16 = 0.0408 | SARS-CoV-2 NSP2 = -0.0473 | SARS-CoV-2 NSP4 = -0.0427 | SARS-CoV-2 NSP5 = 0.0113 | SARS-CoV-2 NSP6 = 0.0324 | SARS-CoV-2 NSP7 = 0.0304 | SARS-CoV-2 NSP8 = -0.0643 | SARS-CoV-2 NSP9 = -0.118 | SARS-CoV-2 ORF10 = 0.00213 | SARS-CoV-2 ORF3A 0.0467 | SARS-CoV-2 ORF3B 0.00128 | SARS-CoV-2 ORF6 = 0.0121 | SARS-CoV-2 ORF7A 0.067 | SARS-CoV-2 ORF7B 0.0267 | SARS-CoV-2 ORF8 = 0.0232 | SARS-CoV-2 ORF9B 0.0512 | [1] 0.00962 | SARS-CoV-2 S 0.0409

B3: RAB32, Q13637 (protein)
chain: MAGGGAGDPGLGAAAAPAPETREHLFKVLVIGELGVGKTSIIKRYVHQLFSQHYRATIGVDFALKVLNWDSRTLVRLQLWDIAGQERFGNMTRVYYKEAVGAFVVFDISRSSTFEAVLKWKSDLDSKVHLPNGSPIPAVLLANKCDQNKDSSQSPSQVDQFCKEHGFAGWFETSAKDNINIEEAARFLVEKILVNHQSFPNEENDVDKIKLDQETLRAENKSQCC
inactive: SARS-CoV-2 M 0.128 | SARS-CoV-2 NSP13 = -0.0796 | SARS-CoV-2 NSP2 = -0.111 | SARS-CoV-2 NSP5 = -0.025 | SARS-CoV-2 NSP6 = -0.222 | SARS-CoV-2 ORF10 = 0.0108 | SARS-CoV-2 ORF3B 0.0868 | SARS-CoV-2 ORF7B -0.0463 | SARS-CoV-2 ORF9B 0.133

B4: CACNG3, O60359 (protein)
chain: MRMCDRGIQMLITTVGAFAAFSLMTIAVGTDYWLYSRGVCRTKSTSDNETSRKNEEVMTHSGLWRTCCLEGAFRGVCKKIDHFPEDADYEQDTAEYLLRAVRASSVFPILSVTLLFFGGLCVAASEFHRSRHNVILSAGIFFVSAGLSNIIGIIVYISANAGDPGQRDSKKSYSYGWSFYFGAFSFIIAEIVGVVAVHIYIEKHQQLRAKSHSEFLKKSTFARLPPYRYRFRRRSSSRSTEPRSRDLSPISKGFHTIPSTDISMFTLSRDPSKITMGTLLNSDRDHAFLQFHNSTPKEFKESLHNNPANRRTTPV
inactive: SARS-CoV-2 M 0.0245 | SARS-CoV-2 NSP12 = 0.117 | SARS-CoV-2 NSP13 = -0.0149 | SARS-CoV-2 NSP2 = -0.166 | SARS-CoV-2 NSP5 = -0.0358 | SARS-CoV-2 NSP7 = 0.0315 | SARS-CoV-2 ORF3B 0.0851 | SARS-CoV-2 ORF6 = -0.0702 | SARS-CoV-2 ORF8 = -0.0136 | SARS-CoV-2 ORF9B -0.0331 | SARS-CoV-2 S 0.0505

B5: GABRD, O14764 (protein)
chain: MDAPARLLAPLLLLCAQQLRGTRAMNDIGDYVGSNLEISWLPNLDGLIAGYARNFRPGIGGPPVNVALALEVASIDHISEANMEYTMTVFLHQSWRDSRLSYNHTNETLGLDSRFVDKLWLPDTFIVNAKSAWFHDVTVENKLIRLQPDGVILYSIRITSTVACDMDLAKYPMDEQECMLDLESYGYSSEDIVYYWSESQEHIHGLDKLQLAQFTITSYRFTTELMNFKSAGQFPRLSLHFHLRRNRGVYIIQSYMPSVLLVAMSWVSFWISQAAVPARVSLGITTVLTMTTLMVSARSSLPRASAIKALDVYFWICYVFVFAALVEYAFAHFNADYRKKQKAKVKVSRPRAEMDVRNAIVLFSLSAAGVTQELAISRRQRRVPGNLMGSYRSVGVETGETKKEGAARSGGQGGIRARLRPIDADTIDIYARAVFPAAFAAVNVIYWAAYAM
inactive: SARS-CoV-2 M -0.000176 | SARS-CoV-2 N 0.0536 | SARS-CoV-2 NSP10 = 0.0382 | SARS-CoV-2 NSP12 = -0.017 | SARS-CoV-2 NSP13 = -0.062 | SARS-CoV-2 NSP15 = -0.0669 | SARS-CoV-2 NSP2 = -0.0264 | SARS-CoV-2 NSP5 = 0.0139 | SARS-CoV-2 NSP6 = -0.0388 | SARS-CoV-2 NSP7 = -0.0262 | SARS-CoV-2 NSP8 = -0.0637 | SARS-CoV-2 NSP9 = 0.0304 | SARS-CoV-2 ORF10 = -0.0504 | SARS-CoV-2 ORF3A -0.0394 | SARS-CoV-2 ORF3B -0.0163 | SARS-CoV-2 ORF6 = 0.0699 | SARS-CoV-2 ORF7A 0.0572 | SARS-CoV-2 ORF7B 0.0107 | SARS-CoV-2 ORF8 = 0.0231 | SARS-CoV-2 ORF9B -0.0511 | [1] -0.0627 | SARS-CoV-2 S 0.0927
